# PMC4336329 (PLoS ONE, 2015)
# In all, about 310,000 compounds went through this assay and about 14,000 (4.5%) showed an effect of 50% or more. The effect is printed as a negative number. Some of the results follow.
# Target: human ether-à-go-go-related gene (hERG) potassium channel (human, UniProt Q12809)
# Test: primary screen, population patch clamp on CHO cells stably expressing hERG
# 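Further: peak tail current of the secondary pulse compared with the same well before compound.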
# Sequence of human ether-à-go-go-related gene (hERG) potassium channel (Q12809 whole entry, looked up): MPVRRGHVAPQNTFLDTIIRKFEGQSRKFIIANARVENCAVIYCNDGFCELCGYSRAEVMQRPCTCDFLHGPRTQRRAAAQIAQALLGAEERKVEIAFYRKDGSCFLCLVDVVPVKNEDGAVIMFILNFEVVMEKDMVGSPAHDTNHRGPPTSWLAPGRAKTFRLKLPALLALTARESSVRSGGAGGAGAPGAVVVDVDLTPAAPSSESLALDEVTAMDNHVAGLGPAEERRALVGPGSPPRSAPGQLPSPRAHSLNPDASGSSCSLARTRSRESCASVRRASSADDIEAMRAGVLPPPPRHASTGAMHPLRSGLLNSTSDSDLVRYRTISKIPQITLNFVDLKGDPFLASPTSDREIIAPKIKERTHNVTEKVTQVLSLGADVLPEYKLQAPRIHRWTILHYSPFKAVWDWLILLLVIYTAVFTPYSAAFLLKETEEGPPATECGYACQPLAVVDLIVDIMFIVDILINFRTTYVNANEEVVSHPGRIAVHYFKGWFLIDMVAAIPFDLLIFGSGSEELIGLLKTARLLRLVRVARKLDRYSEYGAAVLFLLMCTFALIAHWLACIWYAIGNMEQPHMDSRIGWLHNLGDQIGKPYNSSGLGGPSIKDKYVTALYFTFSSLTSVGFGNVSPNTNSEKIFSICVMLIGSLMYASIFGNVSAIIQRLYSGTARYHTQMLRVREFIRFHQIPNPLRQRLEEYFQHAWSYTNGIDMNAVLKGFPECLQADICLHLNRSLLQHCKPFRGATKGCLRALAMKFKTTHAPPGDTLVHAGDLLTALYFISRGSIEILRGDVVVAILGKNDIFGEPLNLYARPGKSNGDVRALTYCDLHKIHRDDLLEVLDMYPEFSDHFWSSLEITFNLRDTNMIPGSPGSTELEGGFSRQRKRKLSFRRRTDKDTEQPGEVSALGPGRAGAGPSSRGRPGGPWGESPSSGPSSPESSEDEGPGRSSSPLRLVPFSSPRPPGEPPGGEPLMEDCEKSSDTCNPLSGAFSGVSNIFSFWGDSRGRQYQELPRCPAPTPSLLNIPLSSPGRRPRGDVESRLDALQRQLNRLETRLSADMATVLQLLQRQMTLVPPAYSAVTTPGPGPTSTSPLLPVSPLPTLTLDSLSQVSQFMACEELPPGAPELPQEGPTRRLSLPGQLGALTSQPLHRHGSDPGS
row,Compound,"hERG current change (%, negative = inhibition) at 10uM [%]"
1,COc1ccc(OC)c(/C=C/C(=O)NC2=NCCS2)c1,1.7
2,COCCSc1nnc(NC(=O)c2ccc(NC(=O)C(C)C)cc2)s1,8.82
3,O=c1cc(O)nc(SCc2ccccc2Cl)[nH]1,18.6
4,COc1ccc(CNC(=O)C(C)N2C(=O)COc3ccc(C)cc32)c(OC)c1 (stereo not shown),8.76
5,CCCN1Cc2cccc(C(=O)NCCc3ccccc3)c2C1=O,-18.3
6,CCCCC(CC)C(=O)NCCc1ccc(S(N)(=O)=O)cc1 (stereo not shown),0.61
7,CCN(CC)Cc1c[nH]c2ccccc12,-1.42
8,Nc1nnc(CC(=O)Nc2ccccc2)s1,6.99
9,CCOc1ccccc1N(CC(=O)N(C)Cc1ccccc1)S(=O)(=O)c1ccccc1,-19.2
10,Cn1c(=O)[nH]c(Nc2ccc(F)cc2)c([N+](=O)[O-])c1=O,2.52
11,Cc1ccc(S(=O)(=O)N2C(=O)CCC2C(=O)O/N=C(\N)c2ccccc2)cc1 (stereo not shown),-8.8
12,CCOc1ccc(C(=O)C(C)OC(=O)Cn2[nH]c(=O)c3ccccc3c2=O)cc1 (stereo not shown),-34.3
13,COC(=O)c1cccc(NS(=O)(=O)c2ccc(NC(C)=O)cc2)c1C,0.788
14,C=CCn1c(NCCOC)nc2c1c(=O)n(C)c(=O)n2C,11.1
15,COC(=O)c1sccc1Oc1ccc(Cl)cc1N1C(=O)CCC1=O,14
16,Cc1nnc(SCC(=O)N/N=C/c2cn(-c3ccccc3)nc2-c2ccc(F)cc2)n1-c1ccccc1,-3.86
17,CCOC(=O)N1CCN(C(=O)C2CCN(S(=O)(=O)N3CCCC3)CC2)CC1,6.91
18,CCNC(=S)N/N=C/c1cccs1,6.26
19,COc1ccc(S(=O)(=O)N2CCCCC2)cc1NC(=O)CCCNC(=O)c1ccc(Cl)cc1,6.98
20,Cc1nn(Cc2ccc(C(=O)Nc3ccccc3F)cc2)c(C)c1Cl,11.3
21,Cc1cc(NS(=O)(=O)c2ccc(NC(=O)c3c(F)c(F)c(F)c(F)c3F)cc2)nc(C)n1,4.63
22,COc1ccc(-c2c(=O)n(OCc3nc4ccccc4[nH]3)c3ccccc3[n+]2[O-])cc1,-4.26
23,Cc1cc(C=C2C(=O)N(C)C(=S)N(C)C2=O)c(C)n1C1CCCC1,14.1
24,C=CCn1c(SCC(=O)NC2CC2)nc2ccccc2c1=O,-3.94
25,O=C1CC(c2ccccc2)n2nc(NC(=O)c3cccs3)nc2N1 (stereo not shown),-0.0115
